# Tests used:
# FMRP = FMRP expression screening (immunostaining imaging assay, 96-well) in FXS-iPSCs; type: cell-based, human
# FMR1 = test: RT-PCR analysis of FMR1 transcript levels in FXS-iPSCs; type: cell-based, human; settings: for FMR1 mRNA expression (RT-PCR): FXS-iPSCs B #40, 96-hour treatment, 5-azaC 5 μM, 5-azadC 5 μM, SGI-110 2 μM, Zebularine 100 μM, non-nucleoside inhibitors 5-100 μM
# From the text: Three human iPSC clones derived from three individual FXS patients were used during the study: patient A—clone 52, patient B—clone 40 and patient C—clone 2 (Urbach, A., Bar-Nur, O., Daley, G. Q., and Benvenisty, N. (2010). Differential Modeling of Fragile X Syndrome by Human Embryonic Stem Cells and Induced Pluripotent Stem Cells. Cell Stem Cell 6, 407-411). As a control, we used a previously characterized isogenic FXS-iPSC line with a deletion of the CGG repeat tract, induced using the CRISPR/Cas9 technology, and CSES9 hESCs and their derivatives were used as a reference for FMR1 normal expression levels (WT expression). Cell culture conditions were standard for PSC culturing. Briefly, cells were cultured on mouse embryonic fibroblasts (MEFs) in KnockOut Dulbecco's modified Eagle's medium (Invitrogen) supplemented with 15% KnockOut SR (Invitrogen), 0.1 mM β-mercaptoethanol (Sigma-Aldrich), 1% nonessential amino acids stock (Biological Industries), 1 mM glutamine, 0.1 mM 3-mercaptoethanol (Sigma-Aldrich), 50 U/ml penicillin (Biological Industries), 50 μg/ml streptomycin (Biological Industries) and 4 ng/ml FGF2 (Invitrogen). The medium was supplemented with 10 μM ROCK inhibitor (Y27632) during the first 24 hours after thawing. The cells were passaged using trypsin or trypsin-EDTA (Biological Industries, Beit Haemek, Israel).
# GAPDH was used for normalization.
# Since aberrant DNA hypermethylation plays a major role in silencing FMR1 transcription, we sought to analyze the reactivating effect of a series of hypomethylating agents, inhibiting the activity of DNMTs. DNMT inhibitors are divided into nucleoside-like inhibitors and non-nucleoside inhibitors of various origins and structures. We have analyzed the effects of 4 nucleoside DNMT inhibitors (5-azacytidine, 5-aza-2-deoxycytidine, SGI-110 and Zebularine) and 5 non-nucleoside DNMT inhibitors (SGI-1027, Procainamide, Hydralazine, RG108, Disulfiram) on FMR1 expression (FIG. 1A) in FXS-iPSCs.
# We tested a set of 140 compounds in two concentrations (2 μM and 20 μM), with a treatment course of 72 hours (FIG. 1F). Using our automated imaging assay, we identified 19 compounds that induced a small FMRP signal increase. […] The positive hit compounds, along with 26 more compounds that were too toxic in the concentrations used in the 96-well assay, were tested in a secondary assay using quantitative RT-PCR to measure FMR1 expression. […] As no hit compound was potent enough to replace 5-azadC as a single treatment, we hypothesized that combining a nucleoside DNMT inhibitor with a compound that acts through a different mechanism may potentiate the effect of the demethylating treatment and decrease the levels of 5-azadC required for a robust induction of FMR1 expression. […]
Compound,"FMRP expression (fraction of FMRP positive cells) by automated imaging (FMRP; 1 μM, different incubation times)","FMRP signal in epigenetic library screen (FMRP; 2 μM and 20 μM, 72 hours, FXS-iPSCs A #52)",FMR1 mRNA expression (RT-PCR) (FMR1),"FMR1 expression in secondary assay (quantitative RT-PCR), single agent (FMR1; FXS-iPSCs A #52, 96-hour treatment, DZNep 20 uM)"
"Nc1ncn([C@H]2C[C@H](O)[C@@H](CO)O2)c(=O)n1 [5-azadC, 5-aza-2-deoxycytidine]",time dependent increase in FMRP expression,identified among the positive hits,robustly induce FMR1 mRNA expression,–
"Nc1nccc2c1ncn2C1C=C(CO)C(O)C1O (stereo not drawn) [DZNep, 3-Deazaneoplanocin A]",–,–,–,the most potent
Nc1ncn([C@@H]2O[C@H](CO)[C@@H](O)[C@H]2O)c(=O)n1 [5-azacytidine],–,–,robustly induce FMR1 mRNA expression,–
"Nc1ncn([C@H]2C[C@H](OP(=O)(O)OC[C@H]3O[C@@H](n4cnc5c(=O)[nH]c(N)nc54)C[C@@H]3O)[C@@H](CO)O2)c(=O)n1 [SGI-110, Guadecitabine]",–,–,robustly induce FMR1 mRNA expression,–

# — patent publication US12226427B2, “Treatment for gene reactivation” (YISSUM RESEARCH DEVELOPMENT COMPANY OF THE HEBREW …, priority 2018, dated 2025)
